The RNAGym collection of RNA variant scans (doi:10.7554/elife.90254)
The source gives no read counts; variants with many changes may rest on few reads.

B1: LINE1-mini (parent)
chain: GGCAGAGCUCAACACAGCGUGGCAAAGUGGCUGUGGCUAGACUGCC

Variants of: B1
Test: self-cleavage, relative activity (ratio to wild type); higher = more cleavage; in vitro, sequencing; the parent is a self-cleaving ribozyme
With U20C A24U U43G G44A the self-cleavage was 0.02. For G1U C3A G40U, the self-cleavage was 0.08. With G1U U20G C31U U38G G44A C46G the self-cleavage was 0.08. With G7A C10A C46U the self-cleavage was 0.03. Variant A4G A6G C10A G30A G36C has a self-cleavage of 0.03. Work on C3U G5U A26U yielded a self-cleavage of 0.07. In the case of C15A C18G A26U C37A U38A A41U U43A C46A, the self-cleavage is reported as 0. With U9A G21U A25C C45A the self-cleavage was 0.14. Work on G2C A12G C31A U34G C42U yielded a self-cleavage of 0. G7U G21U G40A showed a self-cleavage of 0.08. With U9G A25U C42U the self-cleavage was 0.07. With U20G G30U G40U the self-cleavage was 0.01. For G19U C23G A41G G44C, the self-cleavage was 0.01. Work on G2C C37U C46U yielded a self-cleavage of 0.23. A16U G17U U28G G36A showed a self-cleavage of 0.13. G27A G40A C46A gave a self-cleavage of 0.03. Variant G1C G17A G27A has a self-cleavage of 0.02. In the case of U9G U28A U38C A41G U43G, the self-cleavage is reported as 0.02. G1U C15A A16G A39G U43A showed a self-cleavage of 0.11. Variant G1U A11C U34A has a self-cleavage of 0.01. Work on C8A G27U U28A G40U C45A yielded a self-cleavage of 0.33. G17A G35C A39G showed a self-cleavage of 0.03. A16U G19C G30C A41U showed a self-cleavage of 0.25. With C3A U9A G22U A24C C46A the self-cleavage was 0.35. In the case of G1A C3U A24C U32A, the self-cleavage is reported as 0.16. In the case of G22U C31U G35A G36A U38A C45A C46U, the self-cleavage is reported as 0.07. With A12G A24C G44U the self-cleavage was 0. G2A C15A A25U C31G U34C A39U gave a self-cleavage of 0.29. C37U A39G G44A gave a self-cleavage of 0.08. For G22U G30U C31A G40U, the self-cleavage was 0.1. Work on A4G G7C G44U C45U yielded a self-cleavage of 0.02. Work on C3U C10G U20G C42U yielded a self-cleavage of 0.02. In the case of U9A C18G A41U, the self-cleavage is reported as 0.13. For C3A U9G C18G A39U, the self-cleavage was 0.45. For C10G G21U G36U, the self-cleavage was 0.01. C3U C18A C31A C46G showed a self-cleavage of 0.02. G1C A11U A14U showed a self-cleavage of 0.03. In the case of C3U C8G U28A G30A U34G C46U, the self-cleavage is reported as 0.04. With A4G G27U U32G the self-cleavage was 0.1. A11C U34A G40A gave a self-cleavage of 0.03. G21U G29A G35U C42G gave a self-cleavage of 0.03. Work on C15U C23G C45U yielded a self-cleavage of 0.93. Work on G17U U28A C37A yielded a self-cleavage of 0.04. G2A G5C G7U showed a self-cleavage of 0.46. In the case of U20C G21A A26C G36A, the self-cleavage is reported as 0.03. Work on A26G G27U U34C G40C yielded a self-cleavage of 0.01. Variant A6G G22U C23A has a self-cleavage of 0.09. G1U G7C C10A A14G C15G G22A gave a self-cleavage of 0.03. In the case of G2A C10U G17U G22C G40C, the self-cleavage is reported as 0.05. For A14U G27A U43A, the self-cleavage was 0.04. For A4G G5A G44C, the self-cleavage was 0.01. With G7A U32A G35A the self-cleavage was 0.19. In the case of G5U U9A G21U, the self-cleavage is reported as 0.1. In the case of A4U A26U G27C, the self-cleavage is reported as 0.01. In the case of G22U A24C C42U, the self-cleavage is reported as 0.28. C18U U32A A39C gave a self-cleavage of 0.12. In the case of U20A G21U U32C G44C C45G, the self-cleavage is reported as 0.03. In the case of G5C C13A U34G, the self-cleavage is reported as 0.01. A6U G17A A26C G29C A39G C45U showed a self-cleavage of 0.19. In the case of C3A G5C C31U G40U, the self-cleavage is reported as 0.05. Work on G1U G7C G17A G22U C31A yielded a self-cleavage of 0.04. Variant G2U A25C G30A has a self-cleavage of 0.12. A4G G5C C15G C23U showed a self-cleavage of 0.03. A6U G29U C42U gave a self-cleavage of 0.28. With G1U G2C A39G the self-cleavage was 0.04. Work on A4C C18G G21A U28G U32G U43A yielded a self-cleavage of 0. With C18A A26C U28C C31G C46U the self-cleavage was 0.01. In the case of C18G G22A G44U, the self-cleavage is reported as 0.04. C18U C23A G29A G35C showed a self-cleavage of 0.06. Work on A14U G30A G36A C37A yielded a self-cleavage of 0.1. C8G A16U G17A C45G gave a self-cleavage of 0.13. With G7A G17U G19A the self-cleavage was 0.26. In the case of C10U U28A U34A, the self-cleavage is reported as 0.36. Variant A6U C18A G19U G21U G36A A41C has a self-cleavage of 0.04. G5A C13A C15A C23A G33C G40U showed a self-cleavage of 0.28. A6G C13A G29U showed a self-cleavage of 0.1. G5C C37G G44C showed a self-cleavage of 0.06. A14U G22C U28C A39U showed a self-cleavage of 0.04. Variant A12U G17U C31U C42U has a self-cleavage of 0.11. In the case of G5A C31U C37A, the self-cleavage is reported as 0.26. With A6G A25U G44U the self-cleavage was 0.13. Variant C18A G30U G33C A39G G40C C45G has a self-cleavage of 0.01. For A4G U20A C42A, the self-cleavage was 0.05. For A4C G5A A16U, the self-cleavage was 0.08. U9G A26G C37U gave a self-cleavage of 0.04. For C8G C42G C46A, the self-cleavage was 0.03. Variant G5U A12U U20G has a self-cleavage of 0.02. In the case of A24U U32C U43G C46A, the self-cleavage is reported as 0.02. G1U C3G G5U G36U showed a self-cleavage of 0.16. G2C G22C G29U gave a self-cleavage of 0.11. For G1C U9G U34G C37A, the self-cleavage was 0.02. Variant U9A G17U U20A G40C G44U has a self-cleavage of 0.04. In the case of G2A U9C C37U, the self-cleavage is reported as 0.04. With G1C U32A C37U A39G C46A the self-cleavage was 0.08. With U9C U38C C42A the self-cleavage was 0.04. Variant G19A G21C G33C U43G has a self-cleavage of 0. C3U C31U C42A showed a self-cleavage of 0. In the case of A11U A16U C42A G44U, the self-cleavage is reported as 0.04. For A6U C13A G27C G44U, the self-cleavage was 0.12. In the case of C13U C23G C37A G40C, the self-cleavage is reported as 0.03. Variant C8U U28A C46A has a self-cleavage of 0.08. A6G U20A A26C U38A gave a self-cleavage of 0.01. Variant G5C C13A C37U has a self-cleavage of 0.05. Variant G2C G17U U38A has a self-cleavage of 0.08. For C8U A16C G40C, the self-cleavage was 0. With C8A C18A G36C the self-cleavage was 0.07. Work on C15A C23U G30A yielded a self-cleavage of 0.12. For C15A G19C C31A U38A, the self-cleavage was 0.03. C10A G36A C45U gave a self-cleavage of 0. In the case of C3G A6C G7U A14U, the self-cleavage is reported as 2.34. In the case of G1C G2A U20G G22C G33U G35A, the self-cleavage is reported as 0.03. With A6G C18A G33C G44A the self-cleavage was 0.12. In the case of G1C C8A U20G U28C, the self-cleavage is reported as 0.18. C3A G22U G35A gave a self-cleavage of 0.17. With A6C G7U A14C G27U the self-cleavage was 0.01. In the case of G2C G7U C13A G22C U28A, the self-cleavage is reported as 0.03. Work on G2U A12C C31U yielded a self-cleavage of 0. For A4G G5C A12U C37U, the self-cleavage was 0.02. For G5C C15A A24C G36U A41C C46A, the self-cleavage was 0.01. In the case of C10U U20C A25C G33A G36C, the self-cleavage is reported as 0. G1U A6U A14C G17C A25G showed a self-cleavage of 0.01. With G5C C15G C23U A24G C46U the self-cleavage was 0.01. With G7A A12G C13G U34C G44U the self-cleavage was 0.41. For G1U U38G C42G, the self-cleavage was 0.11. Work on A11G C15A G29A U32G yielded a self-cleavage of 0. G7A C8A G21U A41C C45G showed a self-cleavage of 0.28. With C8G C37G G40U U43G the self-cleavage was 0.04. Variant A11U G35U U38C C46A has a self-cleavage of 0.06. G5A A12U U28G G30U C31A U32A showed a self-cleavage of 0.02. G5U C18A U20C gave a self-cleavage of 0.09. For A14C G19C G21U, the self-cleavage was 0.03. With C10U C13A U38C the self-cleavage was 0.02. With G5U G7U G17C A39U the self-cleavage was 0.15. G19U G27A G40U gave a self-cleavage of 0.05. A4G C10A A11G A41U showed a self-cleavage of 0.09. C8U G19C A26C U38A showed a self-cleavage of 0.02. Variant C3A G21U A41C has a self-cleavage of 0.08. Work on C3U G7U G19C G30C yielded a self-cleavage of 0.06. In the case of U9C A14U A16U C45G, the self-cleavage is reported as 0.05. Variant G5U G19C A25C has a self-cleavage of 0.04. Variant G17A U34A A39G G44C has a self-cleavage of 0.03. Variant G2C C18U U32C has a self-cleavage of 0.01. For G7C A16U G22A U38A G44C, the self-cleavage was 0.02. Work on G7U C8A G17A G35A yielded a self-cleavage of 0.06. Work on A6C A24C C46U yielded a self-cleavage of 0.25. With A11U C37A C42A C46A the self-cleavage was 0.01. G22C G30C G36C G40U showed a self-cleavage of 0.24. For G2U G29A U32A, the self-cleavage was 0.03. G36U C37G C45A gave a self-cleavage of 0.03. Variant G5C C10U C23A has a self-cleavage of 0.04. Variant C15A G27A A39U has a self-cleavage of 0.07. A6U C8U C10U G30A G36U gave a self-cleavage of 0.05. A6G G35A C46A gave a self-cleavage of 0.01. In the case of C3A G7A C10A G17C, the self-cleavage is reported as 0.11. In the case of A4U G33U G36U, the self-cleavage is reported as 0.09. Variant C8A G19A C37A U43G C45U has a self-cleavage of 0.38. Work on G33U G40U G44U yielded a self-cleavage of 0.13. In the case of A14U A26G G30A, the self-cleavage is reported as 0.03. G2U U32C G36A C45G gave a self-cleavage of 0.02. G17U C31A G44C gave a self-cleavage of 0.14. C10U G30C C37A C46G gave a self-cleavage of 0.02. Work on C15G G33U G40U yielded a self-cleavage of 0.02. Work on U9C C13G G17U A39U yielded a self-cleavage of 0.02. A12C A16U U20A C46A showed a self-cleavage of 0.01. For C31U U38C G44U, the self-cleavage was 0.01. Variant A6C C8G G19C G21C U34C has a self-cleavage of 0.02. For A4U G29A C42G, the self-cleavage was 0.07.
